Reference: the supplement of paper PMC4967469
Lines with a small IC50 respond at low doses; where the fit passes the top or lowest dose, that dose stands as a limit. AUC is the area under the same curve over the 256-fold range up to the top dose, as a fraction; it is 1 without any effect and falls as sensitivity rises. For some assays here: Any top dose called inferred was derived from the fitted curves, not read from the paper. For some assays here: Where an entry number is given, a second screen of the drug exists; the two often differ.

Experiments:
Assay in all cases: Viability of human cancer cell lines after 72 h of drug (GDSC screen)
[1] = compound: CCCS(=O)(=O)Nc1ccc(F)c(C(=O)c2c[nH]c3ncc(Cl)cc23)c1F [PLX4720]; details: top dose 10 µM
Protocol: (§1)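 Human cancer cell lines in 384-well plates, medium with 10% serum, drug for 72 h over a 256-fold dose range (nine 2-fold or five 4-fold steps up to the top dose). Adherent lines were fixed and stained with the nucleic acid dye Syto60, suspension lines read with resazurin; signal relative to control wells, capped at 0 and 100%. One two-parameter sigmoid per drug and line, fitted in a mixed model over all curves with the slope shared within a line.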

[2] = compound: CC(C)CC(=O)Nc1n[nH]c2c1CN(C(=O)C1CCN(C)CC1)C2(C)C [PHA-793887]; details: top dose 10.24 µM
Protocol: as §1

[3] = compound: C[C@@H](N)c1ccc(C(=O)Nc2ccnc3[nH]ccc23)cc1 [Y-39983]; details: top dose 20 µM; top dose inferred
Protocol: as §1

[4] = compound: NC(=O)Nc1sc(-c2ccc(F)cc2)cc1C(N)=O [TPCA-1]; details: top dose 20 µM
Protocol: as §1

[5] = screen: GDSC drug entry 1371, top dose inferred

Cell Line: A549 (lung adenocarcinoma, adherent)
- AUC ([1]; screen: GDSC drug entry 1036): 0.917
- IC50 ([1]; screen: GDSC drug entry 1036): > 10 µM
- AUC [1, 5]: 0.953
- IC50 [1, 5]: > 10 µM

Cell Line: BALL-1 (B-cell leukaemia, suspension)
- AUC ([1]; screen: GDSC drug entry 1036): 0.985
- IC50 ([1]; screen: GDSC drug entry 1036): > 10 µM
- AUC [1, 5]: 0.989
- IC50 [1, 5]: > 10 µM

Cell Line: BT-549 (breast, adherent)
- AUC ([1]; screen: GDSC drug entry 1036): 0.979
- IC50 ([1]; screen: GDSC drug entry 1036): > 10 µM
- AUC [1, 5]: 0.962
- IC50 [1, 5]: > 10 µM

Cell Line: CADO-ES1 (Ewing sarcoma, suspension)
- AUC [2]: 0.926
- IC50 [2]: > 10.2 µM
- AUC [3]: 0.835
- IC50 [3]: 13.5 µM
- AUC ([1]; screen: GDSC drug entry 1036): 0.965
- IC50 ([1]; screen: GDSC drug entry 1036): > 10 µM
- AUC [1, 5]: 0.986
- IC50 [1, 5]: > 10 µM
- AUC [4]: 0.472
- IC50 [4]: 1.05 µM

Cell Line: CHP-134 (neuroblastoma, suspension)
- AUC [2]: 0.672
- IC50 [2]: 2.22 µM
- AUC [3]: 0.648
- IC50 [3]: 3.59 µM
- AUC ([1]; screen: GDSC drug entry 1036): 0.895
- IC50 ([1]; screen: GDSC drug entry 1036): > 10 µM
- AUC [4]: 0.657
- IC50 [4]: 3.86 µM

Cell Line: CL-34 (large intestine, adherent)
- AUC ([1]; screen: GDSC drug entry 1036): 0.811
- IC50 ([1]; screen: GDSC drug entry 1036): 6.01 µM
- AUC [1, 5]: 0.792
- IC50 [1, 5]: 5.07 µM

Cell Line: CL-40 (large intestine, adherent)
- AUC ([1]; screen: GDSC drug entry 1036): 0.976
- IC50 ([1]; screen: GDSC drug entry 1036): > 10 µM
- AUC [1, 5]: 0.95
- IC50 [1, 5]: > 10 µM

Cell Line: CML-T1 (chronic myeloid leukaemia, suspension)
- AUC ([1]; screen: GDSC drug entry 1036): 0.907
- IC50 ([1]; screen: GDSC drug entry 1036): 9.65 µM
- AUC [1, 5]: 0.921
- IC50 [1, 5]: > 10 µM

Cell Line: COR-L32 (small cell lung carcinoma, suspension)
- AUC [1, 5]: 0.963
- IC50 [1, 5]: > 10 µM

Cell Line: COR-L303 (small cell lung carcinoma, suspension)
- AUC [2]: 0.67
- IC50 [2]: 1.87 µM
- AUC [3]: 0.987
- IC50 [3]: > 20 µM
- AUC [4]: 0.902
- IC50 [4]: > 20 µM

Cell Line: COR-L311 (small cell lung carcinoma, suspension)
- AUC [2]: 0.486
- IC50 [2]: 0.584 µM
- AUC [3]: 0.97
- IC50 [3]: > 20 µM
- AUC [4]: 0.77
- IC50 [4]: 8.12 µM

Cell Line: COR-L321 (lung, suspension)
- AUC [2]: 0.8
- IC50 [2]: 4.95 µM
- AUC [3]: 0.974
- IC50 [3]: > 20 µM
- AUC ([1]; screen: GDSC drug entry 1036): 0.98
- IC50 ([1]; screen: GDSC drug entry 1036): > 10 µM
- AUC [1, 5]: 0.969
- IC50 [1, 5]: > 10 µM
- AUC [4]: 0.912
- IC50 [4]: > 20 µM

Cell Line: D-423MG (glioma, adherent)
- AUC [2]: 0.926
- IC50 [2]: > 10.2 µM
- AUC [3]: 0.776
- IC50 [3]: 9.81 µM
- AUC ([1]; screen: GDSC drug entry 1036): 0.894
- IC50 ([1]; screen: GDSC drug entry 1036): > 10 µM
- AUC [1, 5]: 0.924
- IC50 [1, 5]: > 10 µM
- AUC [4]: 0.828
- IC50 [4]: 16.2 µM

Cell Line: D-566MG (glioma, adherent)
- AUC [2]: 0.928
- IC50 [2]: > 10.2 µM
- AUC [3]: 0.762
- IC50 [3]: 7.08 µM
- AUC ([1]; screen: GDSC drug entry 1036): 0.904
- IC50 ([1]; screen: GDSC drug entry 1036): > 10 µM
- AUC [1, 5]: 0.899
- IC50 [1, 5]: > 10 µM
- AUC [4]: 0.823
- IC50 [4]: 11.6 µM

Cell Line: DIFI (large intestine, adherent)
- AUC ([1]; screen: GDSC drug entry 1036): 0.979
- IC50 ([1]; screen: GDSC drug entry 1036): > 10 µM
- AUC [1, 5]: 0.986
- IC50 [1, 5]: > 10 µM

Cell Line: DOV13 (ovary, adherent)
- AUC [2]: 0.984
- IC50 [2]: > 10.2 µM
- AUC [3]: 0.98
- IC50 [3]: > 20 µM
- AUC ([1]; screen: GDSC drug entry 1036): 0.886
- IC50 ([1]; screen: GDSC drug entry 1036): > 10 µM
- AUC [1, 5]: 0.884
- IC50 [1, 5]: > 10 µM
- AUC [4]: 0.971
- IC50 [4]: > 20 µM

Cell Line: EMC-BAC-1 (lung adenocarcinoma, adherent)
- AUC [2]: 0.889
- IC50 [2]: > 10.2 µM
- AUC [3]: 0.884
- IC50 [3]: > 20 µM
- AUC ([1]; screen: GDSC drug entry 1036): 0.947
- IC50 ([1]; screen: GDSC drug entry 1036): > 10 µM
- AUC [1, 5]: 0.973
- IC50 [1, 5]: > 10 µM
- AUC [4]: 0.703
- IC50 [4]: 5.11 µM

Cell Line: EMC-BAC-2 (lung adenocarcinoma, adherent)
- AUC [2]: 0.583
- IC50 [2]: 1.13 µM
- AUC [3]: 0.919
- IC50 [3]: > 20 µM
- AUC ([1]; screen: GDSC drug entry 1036): 0.894
- IC50 ([1]; screen: GDSC drug entry 1036): > 10 µM
- AUC [1, 5]: 0.827
- IC50 [1, 5]: 7.68 µM
- AUC [4]: 0.764
- IC50 [4]: 8.56 µM

Cell Line: ESO26 (oesophagus, adherent)
- AUC [2]: 0.333
- IC50 [2]: 0.227 µM
- AUC [3]: 0.764
- IC50 [3]: 6.87 µM
- AUC ([1]; screen: GDSC drug entry 1036): 0.986
- IC50 ([1]; screen: GDSC drug entry 1036): > 10 µM
- AUC [1, 5]: 0.987
- IC50 [1, 5]: > 10 µM
- AUC [4]: 0.629
- IC50 [4]: 2.76 µM

Cell Line: ESO51 (oesophagus, semi-adherent)
- AUC [2]: 0.848
- IC50 [2]: > 10.2 µM
- AUC [3]: 0.974
- IC50 [3]: > 20 µM
- AUC ([1]; screen: GDSC drug entry 1036): 0.956
- IC50 ([1]; screen: GDSC drug entry 1036): > 10 µM
- AUC [1, 5]: 0.965
- IC50 [1, 5]: > 10 µM
- AUC [4]: 0.93
- IC50 [4]: > 20 µM

Cell Line: FLO-1 (oesophagus, adherent)
- AUC [2]: 0.837
- IC50 [2]: > 10.2 µM
- AUC [3]: 0.901
- IC50 [3]: > 20 µM
- AUC ([1]; screen: GDSC drug entry 1036): 0.931
- IC50 ([1]; screen: GDSC drug entry 1036): > 10 µM
- AUC [1, 5]: 0.885
- IC50 [1, 5]: > 10 µM
- AUC [4]: 0.584
- IC50 [4]: 2.35 µM

Cell Line: H2810 (mesothelioma, adherent)
- AUC [1, 5]: 0.984
- IC50 [1, 5]: > 10 µM
